Data reported in US20220380450A1 (AstraZeneca / MedImmune, published 2022).

Target: T1, Untagged IL33-01 (human, UniProt O95760 112-270)
T1 construct: Reduced wild type form; also called reduced IL-33; WT IL-33
T1 sequence: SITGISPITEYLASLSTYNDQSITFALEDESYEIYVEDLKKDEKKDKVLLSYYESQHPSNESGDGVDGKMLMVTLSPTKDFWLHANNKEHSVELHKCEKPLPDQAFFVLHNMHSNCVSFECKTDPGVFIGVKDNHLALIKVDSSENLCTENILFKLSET
Assay: depletion of remaining reduced IL-33 from the oxIL-33 preparation, in solution, then size exclusion
Procedure: Aggregates generated during the oxidation process were removed from the sample by loading it on a HiTrap Capto Q ImpRes anion exchange column (GE Healthcare, 17547055). […] Final product quality was assessed by SDS-PAGE, HP-SEC and RP-HPLC.

B1: Human ST2S-huIgG1 Fc-His6 (Fc fusion)
chain: KFSKQSWGLENEALIVRCPRQGKPSYTVDWYYSQTNKSIPTQERNRVFASGQLLKFLPAAVADSGIYTCIVRSPTFNRTGYANVTIYKKQSDCNVPDYLMYSTVSGSEKNSKIYCPTIDLYNWTAPLEWFKNCQALQGSRYRAHKSFLVIDNVMTEDAGDYTCKFIHNENGANYSVTATRSFTVKDEQGFSLFPVIGAPAQNEIKEVEIGKNANLTCSACFGKGTQFLAAVLWQLNGTKITDFGEPRIQQEEGQNQSFSNGLACLDMVLRIADVKEEDLLLQYDCLALNLHGLRRHTVRLSRKNPSKECF[human IgG1 Fc and a few adjoining residues not given here]
notes: The underlining of the signal peptide is lost in the text; also called ST2S-Fc-His6; soluble human ST2S extracellular domain fused to human IgG1 Fc-His6
binding result: binds
